This note sets out measurements from the supplement of paper PMC10126150.

Sequences with one replicate were seen in a single cluster, so their values are uncertain.
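Also: ATP exposure 15 min at 22 °C before imaging.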

The data set concerns ATP. The data set can be described thus: switch fluorescence ratio, 500 uM ATP over buffer (Cy3 cluster intensity, sum of 5 cycles each) (fold (ratio)); higher = stronger signal-on switching upon ATP binding; sequences stand for … in TCGTCGGCAGCGTCAGATGTGTATAAGAGACAGTTTTTTTTTTTTTTTTTTTTTTTTT…TC. Conditions: aptamer strand: ATP DNA aptamer (quencher-CACCTGGGGGAGTATTGCGGAGGAAGG + anchor), 100 nM annealed; ATP concentration: 500 uM; one replicate. Put shortly:
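The quencher-labelled ATP aptamer, at 100 nM, was annealed to Cy3-labelled switching-strand clusters on a modified Illumina MiSeq flow-cell. The clusters were imaged in selection buffer, then after 15 min with 500 uM ATP at 22 °C, and this buffer/ATP cycle ran five times with NaOH stripping and re-annealing between runs. Per-cluster fluorescence ratios, summed target-cycle over summed buffer-cycle Cy3 intensity, were averaged per switch-domain sequence. Clusters outside 100-1000 RFU were excluded.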
Regarding GGGGATCGTG, the switch fluorescence ratio was found to be 0.994.

With AGGCATCCCA, the switch fluorescence ratio is 1.04.

ACAGGAGACC: the switch fluorescence ratio came out at 1.01.

As for TACGTTGGTA, the switch fluorescence ratio was 0.964.

As for CAGTCTTCGT, the switch fluorescence ratio was 1.

Consider ACTAAGTTTC, for which the switch fluorescence ratio came to 0.993.

TCCCAGAAAA: the switch fluorescence ratio is 1.

Turning to TTCATGCTAG, the switch fluorescence ratio was 1.01.

For AATCCCGACT, the switch fluorescence ratio came to 0.995.

For the sequence TATGATGATG, the switch fluorescence ratio stood at 0.982.

As for AAAATTACCT, the switch fluorescence ratio came out at 1.61.

For CAGATGAAAG, the switch fluorescence ratio worked out at 1.01.

For GCTACATCAT, the switch fluorescence ratio is 1.03.

For the sequence AGCCACGGGC, the switch fluorescence ratio worked out at 1.03.

For the sequence ACGTCATATT, the switch fluorescence ratio was 1.18.

Turning to TTAGAGCCAA, the switch fluorescence ratio is 1.03.

With GTGGTATGAC, the switch fluorescence ratio was determined as 1.03.

In the case of ACCGCGGTGC, the switch fluorescence ratio worked out at 2.94.

With TCGCCTATGC, the switch fluorescence ratio is 1.83.

Take CTTAGCATTT: the switch fluorescence ratio was 1.14.

Consider GTTAAACAAA, for which the switch fluorescence ratio was determined as 1.04.

GAGGGGTCGC: the switch fluorescence ratio amounted to 0.964.

Turning to TCTTAATTTG, the switch fluorescence ratio was found to be 1.01.

With GAATTGCTCT, the switch fluorescence ratio is 0.949.

For ACTGGGCTGG, the switch fluorescence ratio was 0.966.

With GGTGGAGTCC, the switch fluorescence ratio came to 1.01.

Regarding AAAGGTCGGA, the switch fluorescence ratio was found to be 0.977.

For the sequence AATATTTATC, the switch fluorescence ratio came to 0.965.

For AATAGTACGA, the switch fluorescence ratio turned out to be 1.06.

With CCATGTACAC, the switch fluorescence ratio turned out to be 1.1.

Take ACCACTAGCG: the switch fluorescence ratio was 1.07.

As for GACCTCATTC, the switch fluorescence ratio is 1.03.

As for CGTCGTGGCA, the switch fluorescence ratio was found to be 1.08.

TGAGTCAACG: the switch fluorescence ratio was determined as 1.02.

GAAGATCCGC: the switch fluorescence ratio is 1.17.

As for CTCGGCTAGC, the switch fluorescence ratio is 1.71.

Take CCAAAGGTAC: the switch fluorescence ratio is 1.83.

As to CAGCTAAAT, the switch fluorescence ratio was 1.06.

TAAATCGCAC: the switch fluorescence ratio was found to be 1.17.

TTCGGTAATA: the switch fluorescence ratio was found to be 1.06.

For AATCTCCTCC, the switch fluorescence ratio worked out at 1.67.

Regarding TTTCCAAAGT, the switch fluorescence ratio was found to be 0.985.

Regarding TCTGCAGCC, the switch fluorescence ratio worked out at 1.95.

As to CAACGTGGGA, the switch fluorescence ratio is 1.07.

Regarding AGTAGTGCTA, the switch fluorescence ratio amounted to 0.99.

Consider GTGCCAGGCA, for which the switch fluorescence ratio turned out to be 0.997.

Take AGGCCACGCT: the switch fluorescence ratio was determined as 1.04.

As for CCGAGCCGGT, the switch fluorescence ratio was found to be 1.04.

Take GTGTATGGGC: the switch fluorescence ratio was 1.04.

Consider CGAGTTTCGA, for which the switch fluorescence ratio worked out at 1.01.

As for TTGACCGTCG, the switch fluorescence ratio was 1.02.

Take TACTCCTAAA: the switch fluorescence ratio amounted to 1.3.

Take GAGGATGCGG: the switch fluorescence ratio was determined as 1.14.

In the case of TTGAGAATAG, the switch fluorescence ratio amounted to 1.01.

As for TTTGAGAGAG, the switch fluorescence ratio is 0.974.

As to ATTTAGGGAG, the switch fluorescence ratio was 0.994.

Regarding GATTCGATAT, the switch fluorescence ratio worked out at 1.03.

Regarding ACTGAGGCAG, the switch fluorescence ratio was 1.09.

For TCGGATATTA, the switch fluorescence ratio was found to be 1.02.

AACGCCGCTC: the switch fluorescence ratio worked out at 1.59.

Regarding CTTGATCTAG, the switch fluorescence ratio amounted to 1.

As to GGACCATATG, the switch fluorescence ratio was 1.01.

As for CTGGGTTCGC, the switch fluorescence ratio was determined as 0.996.

With ATTGGAGAGG, the switch fluorescence ratio came out at 1.03.

Take GCGGTGCAAT: the switch fluorescence ratio was 1.12.

For the sequence CGCAAAACCC, the switch fluorescence ratio came to 4.71.

CTTGGCTGCG: the switch fluorescence ratio was found to be 1.03.

On to GATGTCCTTA, for which the switch fluorescence ratio was found to be 1.02.

For CAGAGCCTGG, the switch fluorescence ratio is 0.947.

As for GGTCATATTT, the switch fluorescence ratio was found to be 1.01.

Regarding TAGGATTCCC, the switch fluorescence ratio was 0.949.

As for GTTTGGTGTC, the switch fluorescence ratio was 1.07.

As to ACGAGTTCTG, the switch fluorescence ratio is 0.996.

For the sequence GGAACCGAAC, the switch fluorescence ratio stood at 1.94.

On to AAACTGAGTG, for which the switch fluorescence ratio amounted to 1.02.

As for TGACCAAAAG, the switch fluorescence ratio was determined as 1.

Regarding ACGTCGTACC, the switch fluorescence ratio stood at 1.09.

Take AACTCGCATC: the switch fluorescence ratio was found to be 1.78.

TGAAGAGGAG: the switch fluorescence ratio amounted to 1.01.

Turning to CTTGGTGGGC, the switch fluorescence ratio was 1.03.

For the sequence ACGGGTGTTG, the switch fluorescence ratio stood at 1.06.

Consider ATCTTGGCTA, for which the switch fluorescence ratio was 1.02.

Regarding GGGGCGTGGA, the switch fluorescence ratio came to 0.933.

As for CCATTGCCCG, the switch fluorescence ratio turned out to be 0.984.

Turning to TACATAGAGC, the switch fluorescence ratio was found to be 0.994.

With GTGCATAAGG, the switch fluorescence ratio was 1.05.

ATATTGTACT: the switch fluorescence ratio is 0.999.

Regarding CCCTCTTAGC, the switch fluorescence ratio was 1.15.

In the case of GACTGCGGAC, the switch fluorescence ratio came out at 2.05.

For the sequence AGAGGTGCAG, the switch fluorescence ratio came to 0.994.

Turning to GACATTGATC, the switch fluorescence ratio is 1.

CCATAACCGA: the switch fluorescence ratio turned out to be 1.02.

As for TTTAATAACG, the switch fluorescence ratio is 0.996.

For the sequence CCCGTCAGCT, the switch fluorescence ratio was found to be 1.05.

TAGCGAAAAC: the switch fluorescence ratio worked out at 1.13.

CTATGGGTAA: the switch fluorescence ratio was found to be 1.01.

With CTGCATGCAT, the switch fluorescence ratio is 1.07.

Turning to GCTAATTTTA, the switch fluorescence ratio was determined as 0.969.

Turning to GGGAAAGGA, the switch fluorescence ratio was determined as 1.01.

Take TTTGTATTAT: the switch fluorescence ratio came out at 1.81.

Turning to CGTTATGTCA, the switch fluorescence ratio is 0.992.

As for CACAAGATGC, the switch fluorescence ratio was found to be 1.82.

With GTGGTTTTCC, the switch fluorescence ratio was found to be 0.985.

Take GGCCAAATGT: the switch fluorescence ratio was determined as 1.03.

For the sequence GTATACAAGA, the switch fluorescence ratio is 1.

Turning to CATCCTTAAT, the switch fluorescence ratio was 1.18.

For AAGAATTAT, the switch fluorescence ratio came to 1.

Consider AGTGATACGA, for which the switch fluorescence ratio was found to be 1.32.

Turning to CTTCTGACCT, the switch fluorescence ratio came out at 1.39.

For the sequence GCAGGATCTC, the switch fluorescence ratio is 1.06.

Consider GAAGCAATTG, for which the switch fluorescence ratio is 1.02.

Turning to CATGTATCTC, the switch fluorescence ratio amounted to 0.999.

For the sequence GGATGGGAGA, the switch fluorescence ratio amounted to 0.99.

Consider TTCTCTATAA, for which the switch fluorescence ratio worked out at 0.998.

On to TTTTAAACCC, for which the switch fluorescence ratio amounted to 1.01.

For ACGAACCTGT, the switch fluorescence ratio is 0.981.

Consider ACAGGACTGT, for which the switch fluorescence ratio was determined as 0.992.

For ACGCGCGTTA, the switch fluorescence ratio was 0.986.

As for TCATTGTCCA, the switch fluorescence ratio worked out at 1.01.

On to GATCGATTTA, for which the switch fluorescence ratio was 1.02.
